# The other results are listed elsewhere or left out.
# Assays:
# Test in all cases: glycan array binding signal (z-score within array); higher = stronger binding
# Conditions in all cases: glycan notation: IUPAC condensed, linker removed
# [1] = biological target: Fuc(a1-2)Gal
# Outline: (§1)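 Negative Z-scores can be read as non-binding. The Z-score is calculated within each array and then averaged across arrays of one protein sequence at different concentrations or buffers and across linkers. Arrays, 3228 in all, were curated from the Consortium for Functional Glycomics database and kept only where the protein sequence was available.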
# [2] = biological target: Fuc(a1-2)Gal(b1-3)GalNAc
# Outline: as §1
# [3] = biological target: Fuc(a1-2)Gal(b1-3)GalNAc(b1-3)Gal
# Outline: as §1
# [4] = biological target: Fuc(a1-2)Gal(b1-3)GalNAc(b1-3)Gal(a1-4)Gal(b1-4)Glc
# Outline: as §1
# [5] = biological target: Fuc(a1-2)Gal(b1-3)GalNAc(b1-3)Gal(b1-4)Glc
# Outline: as §1
# [6] = biological target: Fuc(a1-2)Gal(b1-3)GalNAc(b1-4)[Neu5Ac(a2-3)]Gal(b1-4)Glc
# Outline: as §1
# [7] = biological target: Fuc(a1-2)Gal(b1-3)[Fuc(a1-4)]GlcNAc
# Outline: as §1
# [8] = biological target: Fuc(a1-2)Gal(b1-4)Glc
# Outline: as §1
# [9] = biological target: Fuc(a1-2)Gal(b1-4)GlcNAc
# Outline: as §1
# [10] = biological target: Fuc(a1-2)Gal(b1-4)GlcNAc(b1-3)Gal(b1-4)GlcNAc
# Outline: as §1
# [11] = biological target: Fuc(a1-2)Gal(b1-4)GlcNAc(b1-3)Gal(b1-4)GlcNAc(b1-3)Gal(b1-4)GlcNAc
# Outline: as §1
# [12] = biological target: Fuc(a1-2)Gal(b1-4)[Fuc(a1-3)]GalNAc(b1-3)Gal(b1-4)[Fuc(a1-3)]GlcNAc
# Outline: as §1
# [13] = biological target: Fuc(a1-2)Gal(b1-4)[Fuc(a1-3)]GalNAc(b1-3)Gal(b1-4)[Fuc(a1-3)]GlcNAc(b1-3)Gal(b1-4)[Fuc(a1-3)]GalNAc
# Outline: as §1
# [14] = biological target: Fuc(a1-2)Gal(b1-4)[Fuc(a1-3)]GlcNAc
# Outline: as §1
# [15] = biological target: Fuc(a1-2)GlcNAc
# Outline: as §1
# [16] = biological target: Fuc(a1-2)[Gal(a1-3)]Gal
# Outline: as §1
# [17] = biological target: Fuc(a1-2)[Gal(a1-3)]Gal(b1-3)GlcNAc
# Outline: as §1
# [18] = biological target: Fuc(a1-2)[Gal(a1-3)]Gal(b1-4)Glc
# Outline: as §1
# [19] = biological target: Fuc(a1-2)[Gal(a1-3)]Gal(b1-4)GlcNAc
# Outline: as §1
# [20] = biological target: Fuc(a1-2)[Gal(a1-3)]Gal(b1-4)[Fuc(a1-3)]GlcNAc
# Outline: as §1
# [21] = biological target: Fuc(a1-2)[Gal(a1-4)]Gal(b1-4)GalNAc
# Outline: as §1
# [22] = biological target: Fuc(a1-2)[GalNAc(a1-3)]Gal
# Outline: as §1
# [23] = biological target: Fuc(a1-2)[GalNAc(a1-3)]Gal(b1-3)GlcNAc
# Outline: as §1
# [24] = biological target: Fuc(a1-2)[GalNAc(a1-3)]Gal(b1-4)Glc
# Outline: as §1
# [25] = biological target: Fuc(a1-2)[GalNAc(a1-3)]Gal(b1-4)GlcNAc
# Outline: as §1
# [26] = biological target: Fuc(a1-2)[GalNAc(a1-3)]Gal(b1-4)[Fuc(a1-3)]GlcNAc
# Outline: as §1
# [27] = biological target: Fuc(a1-2)[GalNAc(a1-4)]Gal(b1-4)GlcNAc
# Outline: as §1
# [28] = biological target: Fuc(a1-3)GlcNAc
# Outline: as §1
# [29] = biological target: Fuc(a1-3)[Gal(b1-4)]GlcNAc
# Outline: as §1
# [30] = biological target: Fuc(a1-3)[Gal(b1-4)]GlcNAc(b1-4)Gal(b1-4)[Fuc(a1-3)]GlcNAc
# Outline: as §1
binder,measurement,setting,value
Alpha-agglutinin (Saccharomyces cerevisiae) (protein) MFTFLKIILWLFSLALASAININDITFSNLEITPLTANKQPDQGWTATFDFSIADASSIREGDEFTLSMPHVYRIKLLNSSQTATISLADGTEAFKCYVSQQAAYLYENTTFTCTAQNDLSSYNTIDGSITFSLNFSDGGSSYEYELENAKFFKSGPMLVKLGNQMSDVVNFDPAAFTENVFHSGRSTGYGSFESYHLGMYCPNGYFLGGTEKIDYDSSNNNVDLDCSSVQVYSSNDFNDWWFPQSYNDTNADVTCFGSNLWITLDEKLYDGEMLWVNALQSLPANVNTIDHALEFQYTCLDTIANTTYATQFSTTREFIVYQGR,glycan array binding signal (z-score),[1],-0.186
same,glycan array binding signal (z-score),[2],-0.147
same,glycan array binding signal (z-score),[3],-0.245
same,glycan array binding signal (z-score),[4],-0.21
same,glycan array binding signal (z-score),[5],6.41
same,glycan array binding signal (z-score),[6],-0.232
same,glycan array binding signal (z-score),[7],-0.196
same,glycan array binding signal (z-score),[8],-0.195
same,glycan array binding signal (z-score),[9],-0.085
same,glycan array binding signal (z-score),[10],-0.207
same,glycan array binding signal (z-score),[11],-0.234
same,glycan array binding signal (z-score),[12],-0.238
same,glycan array binding signal (z-score),[13],-0.187
same,glycan array binding signal (z-score),[14],-0.239
same,glycan array binding signal (z-score),[15],-0.236
same,glycan array binding signal (z-score),[16],-0.233
same,glycan array binding signal (z-score),[17],-0.249
same,glycan array binding signal (z-score),[18],-0.207
same,glycan array binding signal (z-score),[19],-0.219
same,glycan array binding signal (z-score),[20],-0.112
same,glycan array binding signal (z-score),[21],0.136
same,glycan array binding signal (z-score),[22],-0.107
same,glycan array binding signal (z-score),[23],-0.098
same,glycan array binding signal (z-score),[24],0.558
same,glycan array binding signal (z-score),[25],0.15
same,glycan array binding signal (z-score),[26],-0.153
same,glycan array binding signal (z-score),[27],-0.182
same,glycan array binding signal (z-score),[28],-0.02
same,glycan array binding signal (z-score),[29],-0.236
same,glycan array binding signal (z-score),[30],-0.213

# Reference: the supplement of paper PMC8728848
